PubChem BioAssay AID504333 (National Center for Advancing Translational Sciences (NCATS), 2011)
Hit rate of the full screen: of about 360,000 compounds, about 16,000 (4.4%) were called active. Inconclusive results, whose numbers are uncertain, are shown with a selection of clear calls. The call rests on the fitted dose curve; in most records, active means well fitted inhibition curve with a large enough effect; inconclusive means small, poorly fitted or top-dose-only effect; inactive means no such curve, though single readings can be large or run the other way. Potencies of inconclusive entries are doubtful fits and often do not repeat.
Further: nearly all actives have a fitted effect of over 60% in size.
On the % scale 0 is the no-effect control and ±100 the full control effect; potency means the concentration at half of the fitted maximal effect; tags describe the fitted curve by direction and shape.

What follows are compounds tested against Bromodomain adjacent to zinc finger domain protein 2B (Homo sapiens) (UniProt Q9UIF8) (assay: qHTS Assay for Inhibitors of BAZ2B). Details: AlphaScreen BAZ2B-H3K14Ac peptide displacement; activity change, negative = inhibition: at 114 µM (top of the series) unless noted.
UniProt Q9UIF8, sequence (Q9UIF8 whole entry, looked up, the tested form may be a part): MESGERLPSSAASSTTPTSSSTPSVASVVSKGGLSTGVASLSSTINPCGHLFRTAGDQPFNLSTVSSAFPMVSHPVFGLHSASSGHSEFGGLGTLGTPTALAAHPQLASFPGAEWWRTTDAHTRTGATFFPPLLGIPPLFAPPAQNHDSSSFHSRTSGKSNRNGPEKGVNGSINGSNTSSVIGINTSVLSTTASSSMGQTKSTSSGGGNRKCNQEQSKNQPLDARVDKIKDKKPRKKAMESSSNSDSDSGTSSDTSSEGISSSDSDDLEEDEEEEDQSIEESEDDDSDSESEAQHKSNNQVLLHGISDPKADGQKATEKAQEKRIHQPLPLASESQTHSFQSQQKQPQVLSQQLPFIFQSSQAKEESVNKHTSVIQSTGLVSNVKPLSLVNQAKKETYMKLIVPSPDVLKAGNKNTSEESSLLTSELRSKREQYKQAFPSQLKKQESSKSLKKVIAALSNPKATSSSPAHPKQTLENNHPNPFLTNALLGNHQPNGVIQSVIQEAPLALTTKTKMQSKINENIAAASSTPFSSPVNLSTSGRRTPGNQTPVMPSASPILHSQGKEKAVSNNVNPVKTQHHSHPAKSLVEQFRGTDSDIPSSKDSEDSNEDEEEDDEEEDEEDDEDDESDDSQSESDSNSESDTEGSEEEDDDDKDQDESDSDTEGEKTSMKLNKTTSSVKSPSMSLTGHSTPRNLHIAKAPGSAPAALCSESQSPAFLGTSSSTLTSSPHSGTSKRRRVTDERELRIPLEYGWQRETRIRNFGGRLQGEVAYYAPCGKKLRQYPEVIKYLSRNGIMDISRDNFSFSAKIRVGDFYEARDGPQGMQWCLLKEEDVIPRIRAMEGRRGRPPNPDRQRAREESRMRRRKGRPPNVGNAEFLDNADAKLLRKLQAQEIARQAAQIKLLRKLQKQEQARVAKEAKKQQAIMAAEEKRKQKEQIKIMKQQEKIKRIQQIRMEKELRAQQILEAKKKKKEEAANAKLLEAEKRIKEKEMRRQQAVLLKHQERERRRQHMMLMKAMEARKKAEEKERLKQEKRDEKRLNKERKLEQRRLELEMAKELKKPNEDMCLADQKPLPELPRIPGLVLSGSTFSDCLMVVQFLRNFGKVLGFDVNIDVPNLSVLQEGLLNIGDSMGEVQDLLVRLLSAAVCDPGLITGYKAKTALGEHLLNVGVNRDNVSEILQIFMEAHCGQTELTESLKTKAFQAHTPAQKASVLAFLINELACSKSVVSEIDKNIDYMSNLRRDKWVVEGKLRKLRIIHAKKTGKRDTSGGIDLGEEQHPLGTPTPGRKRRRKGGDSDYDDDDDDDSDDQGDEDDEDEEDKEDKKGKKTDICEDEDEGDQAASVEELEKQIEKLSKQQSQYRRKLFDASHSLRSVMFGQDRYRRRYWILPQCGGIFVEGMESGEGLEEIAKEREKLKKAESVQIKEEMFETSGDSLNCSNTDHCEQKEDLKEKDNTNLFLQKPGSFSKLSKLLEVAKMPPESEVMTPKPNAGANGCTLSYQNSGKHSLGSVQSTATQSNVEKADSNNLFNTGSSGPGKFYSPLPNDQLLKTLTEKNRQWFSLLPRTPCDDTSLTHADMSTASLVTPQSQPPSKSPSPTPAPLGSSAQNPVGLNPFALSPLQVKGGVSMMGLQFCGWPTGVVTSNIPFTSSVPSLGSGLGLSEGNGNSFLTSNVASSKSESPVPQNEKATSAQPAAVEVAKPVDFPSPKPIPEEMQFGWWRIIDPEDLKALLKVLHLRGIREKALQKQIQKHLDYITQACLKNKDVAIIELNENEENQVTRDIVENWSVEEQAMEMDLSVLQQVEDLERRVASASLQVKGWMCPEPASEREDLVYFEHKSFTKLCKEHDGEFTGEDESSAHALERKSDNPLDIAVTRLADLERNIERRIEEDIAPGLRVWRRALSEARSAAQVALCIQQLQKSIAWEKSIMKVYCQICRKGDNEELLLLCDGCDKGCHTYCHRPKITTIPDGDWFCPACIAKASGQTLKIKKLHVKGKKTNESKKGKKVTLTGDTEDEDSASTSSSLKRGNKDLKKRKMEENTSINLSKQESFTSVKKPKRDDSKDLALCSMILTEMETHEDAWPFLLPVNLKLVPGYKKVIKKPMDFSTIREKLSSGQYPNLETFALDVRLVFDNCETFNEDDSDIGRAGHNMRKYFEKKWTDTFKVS
Procedure, shortened: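 AlphaScreen displacement: compounds (up to 110uM) incubated 30 min at room temperature with a preformed 50 nM BAZ2B/50 nM biotinylated H3K14Ac peptide complex in PBS pH 7.4 with Tween-20. Donor and acceptor beads at 10 ug/mL final added, 20 min light-protected before reading.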
In the case of O=C1/C(=C/c2ccccc2F)SC(=S)N1CC(=O)N1CCCCC1c1cccnc1 (stereo not drawn), the Potency is reported as inconclusive: 11.2 µM [inhibitor, full curve]. For Cc1[nH]c2ccc(C(=O)NC3CCC(C)CC3)cc2c1C (stereo not drawn), the “activity change, negative = inhibition” value was inactive: -34.7%. Cc1ccc(C)c(CN2C(=O)c3ccccc3S(=O)c3ccc(C(=O)N4CCN(c5ccccn5)CC4)cc32)c1 (stereo not drawn) was tested, and the Potency was inconclusive: 70.8 µM [inhibitor, partial curve]. With COc1cccc(OC)c1C(=O)N1CCN(Cc2ccccc2C)CC1 the Potency was active: 50.1 µM. In the case of N#CCC(=O)Nc1ccc(C(=O)NCc2ccccn2)cc1, the “activity change, negative = inhibition” value is reported as inactive: -2.02%. CCOC(=O)c1cnc2c(-c3ccccc3)cnn2c1N was tested, and the “activity change, negative = inhibition” value was inactive: 0.563%. For CNS(=O)(=O)c1ccc(NC(=O)Nc2ccc3c(c2)OCO3)cc1, the Potency was inconclusive: 79.4 µM [inhibitor, single point]. CN1CCN(C(=O)c2ccc(OCCOc3ccccc3)cc2)CC1 was tested, and the “activity change, negative = inhibition” value was inactive: -3.5%. For S=C1NCCc2ccc(Cl)cc2C1c1ccccc1Cl (stereo not drawn), the Potency was active: 44.7 µM. In the case of CC(C)(C)n1nc2c(c1NC(=O)c1cc(Cl)ccc1[N+](=O)[O-])CS(=O)(=O)C2, the Potency is reported as inconclusive: 79.4 µM [inhibitor, single point]. CN(C)c1cccc(C(=O)Nc2ccc3nc4n(c(=O)c3c2)CCCCC4)c1 was tested, and the Potency was inconclusive: 3.98 µM [inhibitor, full curve, poor fit]. With Cc1noc(C)c1CSCC(=O)N(C)CC(=O)Nc1ccc(Cl)c(Cl)c1 the Potency was inconclusive: 89.1 µM [inhibitor, single point]. In the case of Cc1ccc(S(=O)(=O)N2C(=O)/C(=C3\SC(=S)NC3=O)c3ccccc32)cc1, the Potency is reported as inconclusive: 2.82 µM [inhibitor, full curve, poor fit]. For CCOC(=O)c1c(NC(=O)/C=C\C(=O)O)sc(C)c1-c1ccccc1, the “activity change, negative = inhibition” value was inactive: -16.2%. COc1ccc(CCNC(=O)CCn2c(=O)c3cccn3c3cccnc32)c(OC)c1OC was tested, and the “activity change, negative = inhibition” value was inactive: -11.4%. With COCCNCCCOc1ccc(C(C)(C)c2ccccc2)cc1 the Potency was active: 35.5 µM. In the case of COc1ccccc1Nc1nc(NCc2ccco2)c2ccccc2n1, the Potency is reported as inconclusive: 50.1 µM [inhibitor, partial curve]. For COC(=O)c1ccc(NC(=O)c2cn(-c3ccccc3)nc2-c2ccncc2)cc1, the Potency was inconclusive: 89.1 µM [inhibitor, single point]. With CC1CCCC(NC(=O)CSc2ccc(F)cc2)C1C (stereo not drawn) the “activity change, negative = inhibition” value was inactive: -32.8%. With COc1ccc(C(=O)NC(=S)Nc2ccc(N3CCCC3)cc2)cc1OC the Potency was inconclusive: 56.2 µM [inhibitor, single point]. In the case of O=[N+]([O-])c1ccc(Oc2cccc3cccnc23)c(Cl)c1, the Potency is reported as inconclusive: 50.1 µM [inhibitor, partial curve]. In the case of Cc1cc(C)c2c(n1)nn1c(C)c(CCC(=O)NCc3ccc(Cl)cc3)c(C)nc21, the “activity change, negative = inhibition” value is reported as inactive: 0.272%. With Cc1ccc(S(=O)(=O)N(CC(=O)N/N=C/c2ccco2)Cc2ccccc2)cc1 the “activity change, negative = inhibition” value was inactive: -31%. C=CCC1c2cccc(C(=O)OC)c2C(=O)N1c1ccccc1 (stereo not drawn) was tested, and the Potency was inconclusive: 89.1 µM [inhibitor, single point]. In the case of COc1ccccc1/C=N/N1CCN(Cc2ccccc2Cl)CC1, the Potency is reported as active: 44.7 µM. In the case of Cc1ccc(N2C(=O)CC(Cc3ccc(Cl)cc3)C2=O)cc1 (stereo not drawn), the “activity change, negative = inhibition” value is reported as inactive: -1.92%. With Nc1ccc2nc(CN3CCOCC3)[nH]c2c1 the Potency was active: 50.1 µM. In the case of Cc1c(NC(=O)Cc2cccs2)cccc1[N+](=O)[O-], the Potency is reported as active: 50.1 µM. In the case of O=C(CSCc1ccccc1)Nc1cccc(C(=O)Nc2ccc(C(=O)O)cc2)c1, the Potency is reported as inconclusive: 100 µM [inhibitor, single point]. For CCOc1ccc(NC(=O)c2nn(-c3ccc(OC)cc3OC)c(=O)c3ccccc23)cc1, the “activity change, negative = inhibition” value was inactive: 2.79%. With c1coc(CN(Cc2ccco2)c2ncnc3c2oc2ccccc23)c1 the Potency was inconclusive: 79.4 µM [inhibitor, partial curve]. COCCNc1ccc(S(=O)(=O)N2CCCC2)cn1 was tested, and the “activity change, negative = inhibition” value was inactive: -3.66%. With COCCCn1c(SCC(=O)N2CCCCC2C)nnc1-c1ccco1 (stereo not drawn) the “activity change, negative = inhibition” value was inactive: 7.9%. In the case of CN(C(=O)C1CCCC1)C1CCS(=O)(=O)C1 (stereo not drawn), the “activity change, negative = inhibition” value is reported as inactive: 7.18%. In the case of COc1ccc(OC)c(NC(=O)N2c3ccccc3Sc3ccccc32)c1, the Potency is reported as inconclusive: 25.1 µM [inhibitor, full curve]. Cc1ccc(CS/C(Nc2ccccc2C)=C(\C#N)C(N)=O)c(C)c1 was tested, and the “activity change, negative = inhibition” value was inactive: -2.62%. In the case of CN(C)c1ccc(/C=C(\NC(=O)c2ccccc2)C(=O)NCc2ccncc2)cc1, the “activity change, negative = inhibition” value is reported as inactive: -21.7%. For Cc1ccc(S(=O)(=O)N2CCCCC2)cc1NC(=O)[C@@H]1CCCN1C(=O)c1cccs1, the Potency was inconclusive: 89.1 µM [inhibitor, single point]. In the case of Cc1cc(C)nc(SCCS(=O)(=O)Cc2ccccc2)n1, the “activity change, negative = inhibition” value is reported as inactive: 4.86%. With O=C(Nc1cccc(Cl)c1N1CCCC1)c1ccc([N+](=O)[O-])o1 the Potency was inconclusive: 11.2 µM [inhibitor, partial curve]. With CCOc1ccc(NC(=O)C(=O)NCC2CCCN2CC)cc1 (stereo not drawn) the Potency was inconclusive: 89.1 µM [inhibitor, single point]. For CCNc1ccc(S(=O)(=O)N(C)C)cc1NCC(=O)Nc1ccccc1Br, the Potency was inconclusive: 79.4 µM [inhibitor, single point]. For Cc1cccc(-c2nc(CN3CCCC(C(=O)NC4CCC(C)CC4)C3)c(C)o2)c1 (stereo not drawn), the Potency was inconclusive: 89.1 µM [inhibitor, single point]. With O=C(CSc1n[nH]c(-c2ccco2)n1)Nc1ccccc1Cl the “activity change, negative = inhibition” value was inactive: -6.38%. For CCN(C(=O)CSc1nc(-c2ccccc2)cn1N)c1c(N)n(Cc2ccccc2)c(=O)[nH]c1=O, the “activity change, negative = inhibition” value was inactive: -4.14%. With Cc1ccc(CNc2ccc(-c3nc(-c4ccccn4)no3)cc2[N+](=O)[O-])cc1 the Potency was inconclusive: 89.1 µM [inhibitor, single point]. In the case of Oc1ccc(/C=N/Nc2ccc(C(F)(F)F)cn2)c(O)c1, the Potency is reported as active: 28.2 µM. With O=c1c([N+](=O)[O-])c(O)c2cccc3c2n1CCC3 the Potency was inconclusive: 89.1 µM [inhibitor, single point]. For CCOC(=O)C1=C(COC(=O)COc2ccc(Br)cc2)NC(=O)NC1C (stereo not drawn), the “activity change, negative = inhibition” value was inactive: 4.79%. CC(=O)N1c2ccc(S(=O)(=O)N3CCCCCC3)cc2CC1C(=O)NCc1ccccc1F (stereo not drawn) was tested, and the “activity change, negative = inhibition” value was inactive: -12.5%. For COc1ccc(CC(=O)NCCc2ccc(S(N)(=O)=O)cc2)cc1, the Potency was inconclusive: 7.94 µM [inhibitor, single point]. For C/C=C(\C)CN1CCN(c2ccc(C)cc2)CC1, the Potency was active: 25.1 µM. With COc1ccc(-c2nc(N=Nc3ccc(O)cc3)n[nH]2)cc1 the Potency was inconclusive: 39.8 µM [inhibitor, full curve]. CCOc1ccc(CCNC(=O)Cn2nnc(-c3ccc(C(F)(F)F)cc3)n2)cc1OCC was tested, and the Potency was inconclusive: 89.1 µM [inhibitor, single point]. For c1ccc(-c2n[nH]c(-c3ccccc3)c2-c2nc3ccccc3[nH]2)cc1, the “activity change, negative = inhibition” value was inactive: -30%. N#Cc1ncc(Cc2ccccc2)nc1C#N was tested, and the Potency was inconclusive: 50.1 µM [inhibitor, partial curve]. With CC(NC(=S)NCCN1CCOCC1)C12CC3CC(CC(C3)C1)C2 (stereo not drawn) the Potency was inconclusive: 70.8 µM [inhibitor, single point]. For CCN(CCNCC(O)COCc1ccc(Cl)cc1)c1cccc(C)c1 (stereo not drawn), the Potency was active: 20 µM. For O=C(COc1ccc([N+](=O)[O-])cc1)Nc1cccc2cccnc12, the “activity change, negative = inhibition” value was inactive: -5.24%. For O=[N+]([O-])c1cc(C=Nc2cccc3c(O)cccc23)ccc1Cl, the Potency was inconclusive: 50.1 µM [inhibitor, partial curve]. In the case of COC(=O)c1cc(OC)c(OC)cc1NC(=O)CCc1ccc(C)o1, the Potency is reported as inconclusive: 39.8 µM [inhibitor, partial curve]. In the case of O=C(CSc1nc(C(F)(F)F)cc(=O)[nH]1)NCc1ccc2c(c1)OCO2, the “activity change, negative = inhibition” value is reported as inactive: 7.05%. For CN(C)c1ccccc1C(=O)N1CCCC(C(=O)c2ccc3ccccc3c2)C1 (stereo not drawn), the Potency was inconclusive: 44.7 µM [inhibitor, partial curve]. For COc1ccc(CNC(=O)c2cc3cc(S(=O)(=O)N4CCCCC4)ccc3n2C)c(OC)c1, the “activity change, negative = inhibition” value was inactive: -2.07%. CCOc1ccc(S(=O)(=O)Nc2cc(Sc3ncn[nH]3)c3oc(=O)sc3c2)cc1 was tested, and the Potency was inconclusive: 70.8 µM [inhibitor, single point]. For N#Cc1c(NC(=O)CCC(=O)O)sc2c1CCCCC2, the Potency was inconclusive: 79.4 µM [inhibitor, partial curve]. COc1ccc(C(c2nnnn2C2CCCC2)N2CCN(C(=O)c3ccco3)CC2)cc1OC (stereo not drawn) was tested, and the Potency was inconclusive: 79.4 µM [inhibitor, single point]. N#CCCN(C(=S)NC(=O)c1cccs1)c1ccccc1F was tested, and the Potency was inconclusive: 89.1 µM [inhibitor, single point]. In the case of Cc1ccnc(NS(=O)(=O)c2ccc(NC(=O)C(C)(C)C)cc2)n1, the “activity change, negative = inhibition” value is reported as inactive: -12.6%. For Cc1c(Cl)cccc1N1C(N)=C(C#N)C(c2cc(CN3CCOCC3)cs2)C2=C1CCCC2=O (stereo not drawn), the “activity change, negative = inhibition” value was inactive: -32.4%. Cc1ccccc1C(=O)NNC(=O)c1cccn1C was tested, and the “activity change, negative = inhibition” value was inactive: 3.82%. In the case of S=c1[nH]nc(-c2cc(-c3ccco3)[nH]n2)n1-c1cccc2ccccc12, the Potency is reported as active: 39.8 µM. With CCOC(=O)N1CCc2c(sc(NCc3ccc(N(C)C)cc3)c2C(=O)Nc2ccc(OC)cc2)C1 the Potency was active: 22.4 µM. With O=C(/C=C/c1ccco1)NC(=S)N1CCCCC1 the Potency was inconclusive: 79.4 µM [inhibitor, single point]. With CC1CCc2c(sc(NC(=O)c3ccc(Cl)cc3Cl)c2C#N)C1 (stereo not drawn) the “activity change, negative = inhibition” value was inactive: 4.01%. With CCn1cnc2sc(C(=O)Oc3ccc(Br)cc3)c(C)c2c1=O the “activity change, negative = inhibition” value was inactive: -2.3%. O=C(O)c1ccc(-n2cccc2/C=C2/NC(=O)N(c3ccccc3)C2=O)cc1 was tested, and the Potency was active: 12.6 µM. In the case of CCCOc1ccc(C(=O)Nc2cccnc2)cc1, the “activity change, negative = inhibition” value is reported as inactive: 2.35%.
